Laboratory results taken from US11040047B2, “Prodrugs of nucleoside phosphonates” (Katholieke Universiteit Leuven, priority 2017, dated 2021).

Assays:
Experiment in all cases: microbe, parasite or virus in culture
[1] = system: thymidine kinase-deficient (TK−) HSV-1 KOS strain resistant to ACV (ACVr); assay type: cell-based, herpes simplex virus 1; details: Human alphaherpesvirus 1, HEL, read-out: Antiviral activity EC50 HSV-1 KOS ACVr strain
[2] = system: herpes simplex virus 1 (HSV-1) strain KOS; details: Human alphaherpesvirus 1, HEL, read-out: Antiviral activity EC50 HSV-1 KOS strain
[3] = system: herpes simplex virus 2 (HSV-2) strain G; details: Human alphaherpesvirus 2, HEL, read-out: Antiviral activity EC50 HSV-2 G strain

| Structure (SMILES) | pEC50 [1] | pEC50 [2] | pEC50 [3] |
| --- | --- | --- | --- |
| O=c1[nH]c(=O)n([C@H]2C[C@H](O)[C@@H](CO)O2)cc1/C=C/Br [Brivudin, reference compound] | < 4.52 | – | – |
| CCCCCOC(=O)C[C@H](NP1(=O)CO[C@@H](Cn2cnc3c(N)ncnc32)CO1)C(=O)OCCCCC (stereo partly drawn) [Example 8, Diamyl {(5S)-5-[(6-amino-9H-purin-9-yl)methyl]-2-oxido-1,4,2-dioxaphosphinan-2-yl}-L-aspartate] | 9.14 | 8.49 | 8.70 |
| CCCCCOC(=O)C[C@H](NP1(=O)CO[C@H](Cn2cnc3c(N)ncnc32)CO1)C(=O)OCCCCC (stereo partly drawn) [Example 9, Diamyl {(5R)-5-[(6-amino-9H-purin-9-yl)methyl]-2-oxido-1,4,2-dioxaphosphinan-2-yl}-L-aspartate] | 7.12 | 6.68 | 6.96 |
| CCCCCOC(=O)C[C@H](NP1(=O)CO[C@@H](Cn2ccc(N)nc2=O)CO1)C(=O)OCCCCC (stereo partly drawn) [Example 10, Diamyl {(5S)-5-[(4-amino-2-oxopyrimidin-1(2H)-yl)methyl]-2-oxido-1,4,2-dioxaphosphinan-2-yl}-L-aspartate] | 8.11 | 7.85 | 7.89 |
| CCCCCOC(=O)C[C@H](NP1(=O)CO[C@H](Cn2ccc(N)nc2=O)CO1)C(=O)OCCCCC (stereo partly drawn) [Example 11, Diamyl {(5R)-5-[(4-amino-2-oxopyrimidin-1(2H)-yl)methyl]-2-oxido-1,4,2-dioxaphosphinan-2-yl}-L-aspartate] | 5.80 | 5.62 | 5.46 |
| CCCCCOC(=O)[C@H](Cc1ccccc1)NP1(=O)CO[C@@H](Cn2cnc3c(N)ncnc32)CO1 (stereo partly drawn) [Example 12, Amyl ((5S)-5-((6-amino-9H-purin-9-yl)methyl)-2-oxido-1,4,2-dioxaphosphinan-2-yl)-L-phenylalaninate] | 8.82 | 8.46 | 8.64 |
| CCCCCOC(=O)[C@H](CCSC)NP1(=O)CO[C@@H](Cn2cnc3c(N)ncnc32)CO1 (stereo partly drawn) [Example 13, Amyl ((5S)-5-((6-amino-9H-purin-9-yl)methyl)-2-oxido-1,4,2-dioxaphosphinan-2-yl)-L-methioninate] | 8.24 | 8.05 | 7.96 |
| CCCCCOC(=O)[C@H](C)NP1(=O)CO[C@@H](Cn2cnc3c(N)ncnc32)CO1 (stereo partly drawn) [Example 14, Amyl ((5S)-5-((6-amino-9H-purin-9-yl)methyl)-2-oxido-1,4,2-dioxaphosphinan-2-yl)-L-alaninate] | 8.00 | 7.70 | 7.77 |
| CCCCCOC(=O)CC[C@H](NP1(=O)CO[C@@H](Cn2cnc3c(N)ncnc32)CO1)C(=O)OCCCCC (stereo partly drawn) [Example 15, Diamyl {(5S)-5-[(6-amino-9H-purin-9-yl)methyl]-2-oxido-1,4,2-dioxaphosphinan-2-yl}-L-glutamate] | 8.92 | 8.92 | 8.60 |
| CCCCCOC(=O)[C@@H](NP1(=O)CO[C@@H](Cn2cnc3c(N)ncnc32)CO1)C(C)C (stereo partly drawn) [Example 16, Amyl {(5S)-5-[(6-amino-9H-purin-9-yl)methyl]-2-oxido-1,4,2-dioxaphosphinan-2-yl}-L-valinate] | 8.74 | 8.52 | 8.72 |
| CCCCCOC(=O)[C@H](CC(C)C)NP1(=O)CO[C@@H](Cn2cnc3c(N)ncnc32)CO1 (stereo partly drawn) [Example 17, Amyl {(5S)-5-[(6-amino-9H-purin-9-yl)methyl]-2-oxido-1,4,2-dioxaphosphinan-2-yl}-L-leucinate] | 8.89 | 8.70 | 8.72 |
| CCCCCOC(=O)[C@@H](NP1(=O)CO[C@@H](Cn2cnc3c(N)ncnc32)CO1)[C@@H](C)CC (stereo partly drawn) [Example 18, Amyl {(5S)-5-[(6-amino-9H-purin-9-yl)methyl]-2-oxido-1,4,2-dioxaphosphinan-2-yl}-L-isoleucinate] | 8.72 | 8.70 | 8.57 |
| CCCCCOC(=O)[C@@H](NP(=O)(CO[C@H](CO)Cn1cnc2c(N)ncnc21)N[C@H](C(=O)OCCCCC)C(C)C)C(C)C [Example 19, diamyl 2,2′-((((((S)-1-(6-amino-9H-purin-9-yl)-3-hydroxypropan-2-yl)oxy)methyl)phosphoryl)bis(azanediyl))(2S,2′S)-bis(3-methylbutanoate)] | 9.05 | 8.64 | 8.55 |
| Nc1nc2c(ncn2CCC(CO)CO)c(=O)[nH]1 [Penciclovir, reference compound] | < 4.10 | 6.32 | 6.08 |

pEC50: −log10 of the molar value.
